# According to EP3057951B1, “METHYLENE LINKED QUINOLINYL MODULATORS OF ROR-GAMMA-T” (Janssen Pharmaceutica NV, priority 2013, dated 2015):
# pIC50: −log10 of the molar value.
# Tested on: IL-17 production by CD4 T cells
# Experiment: Human Th17 Assay (IL-17 production under Th17 differentiation conditions)
# Settings: Homo sapiens, CD4+ T, 72 h, read-out: Human Th17 Assay, IC50, IL-17 production, CD4 T cells, 3 days
row,SMILES,pIC50
1,"COc1nc2ccc(C(O)(c3ccc(C)nc3C)c3cnnn3C)cc2c(Cl)c1Cc1ccc(-n2cccn2)cc1 (single isomer, unassigned) [Example 17c, (3-(4-(1H-Pyrazol-1-yl)benzyl)-4-chloro-2-methoxyquinolin-6-yl)(2,6-dimethylpyridin-3-yl)(1-methyl-1H-1,2,3-triazol-5-yl)methanol]",9.01
2,"COc1nc2ccc(C(O)(c3ccccc3)C3CCN(C(C)=O)CC3)cc2c(Cl)c1Cc1ccc(-n2cncn2)cc1 (single isomer, unassigned) [Example 18b, 1-(4-((3-(4-(1H-1,2,4-Triazol-1-yl)benzyl)-4-chloro-2-methoxyquinolin-6-yl)(hydroxy)(phenyl)methyl)piperidin-1-yl)ethanone]",7.85
3,"COc1nc2ccc(C(O)(c3sc(C)nc3C)c3cnnn3C)cc2c(Cl)c1Cc1ccc(-n2cccn2)cc1 (single isomer, unassigned) [Example 21c, (3-(4-(1H-Pyrazol-1-yl)benzyl)-4-chloro-2-methoxyquinolin-6-yl)(2,4-dimethylthiazol-5-yl)(1-methyl-1H-1,2,3-triazol-5-yl)methanol]",8.49
4,"CCc1nc2ccc(C(O)(c3ccc(C)nc3C)c3cnnn3C)cc2c(Cl)c1Cc1ccc(C(F)(F)F)cc1 (single isomer, unassigned) [Example 23c, (4-Chloro-2-ethyl-3-(4-(trifluoromethyl)benzyl)quinolin-6-yl)(2,6-dimethylpyridin-3-yl)(1-methyl-1H-1,2,3-triazol-5-yl)methanol]",8.70
5,"COc1nc2ccc(C(O)(c3ccc(C)nc3C)c3cnnn3C)cc2c(Cl)c1Cc1ccc(N(C)C)cc1 (single isomer, unassigned) [Example 24c, (4-Chloro-3-(4-(dimethylamino)benzyl)-2-methoxyquinolin-6-yl)(2,6-dimethylpyridin-3-yl)(1-methyl-1H-1,2,3-triazol-5-yl)methanol]",8.33
6,"CCc1nc2ccc(C(O)(c3cnnn3C)c3cnc(C)n3C)cc2c(Cl)c1Cc1ccc(C(F)(F)F)cc1 (single isomer, unassigned) [Example 25b, (4-Chloro-2-ethyl-3-(4-(trifluoromethyl)benzyl)quinolin-6-yl)(1,2-dimethyl-1H-imidazol-5-yl)(1-methyl-1H-1,2,3-triazol-5-yl)methanol]",8.68
7,"Cc1nc2ccc(C(O)(c3ccc(C(F)(F)F)nc3)c3cncn3C)cc2c(Cl)c1Cc1ccc(C(F)(F)F)cc1 (single isomer, unassigned) [Example 26b, (4-Chloro-2-methyl-3-(4-(trifluoromethyl)benzyl)quinolin-6-yl)(1-methyl-1H-imidazol-5-yl)(6-(trifluoromethyl)pyridin-3-yl)methanol]",7.35
8,"COc1nc2ccc(C(O)(c3ccc(C#N)cc3)c3cncn3C)cc2c(Cl)c1Cc1ccc(C(F)(F)F)nc1 (single isomer, unassigned) [Example 38c, 4-((4-Chloro-2-methoxy-3-((6-(trifluoromethyl)pyridin-3-yl)methyl)quinolin-6-yl)(hydroxy)(1-methyl-1H-imidazol-5-yl)methyl)benzonitrile]",7.68
9,"COc1nc2ccc(C(O)(c3ccc(C)nc3C)c3cnnn3C)cc2c(Cl)c1Cc1ccc(C(F)(F)F)nc1 (single isomer, unassigned) [Example 40c, (4-Chloro-2-methoxy-3-((6-(trifluoromethyl)pyridin-3-yl)methyl)quinolin-6-yl)(2,6-dimethylpyridin-3-yl)(1-methyl-1H-1,2,3-triazol-5-yl)methanol]",7.70
10,"COc1nc2ccc(C(O)(c3cnnn3C)c3cnc(C)n3C)cc2c(Cl)c1Cc1ccc(C(F)(F)F)nc1 (single isomer, unassigned) [Example 43c, (4-Chloro-2-methoxy-3-((6-(trifluoromethyl)pyridin-3-yl)methyl)quinolin-6-yl)(1,2-dimethyl-1H-imidazol-5-yl)(1-methyl-1H-1,2,3-triazol-5-yl)methanol]",7.85
11,"COc1nc2ccc(C(O)(c3ccc(F)cc3)C3CCN(C(C)=O)CC3)cc2c(Cl)c1Cc1ccc(F)cc1 (single isomer, unassigned) [Example 51b, 1-(4-((4-Chloro-3-(4-fluorobenzyl)-2-methoxyquinolin-6-yl)(4-fluorophenyl)(hydroxy)methyl)piperidin-1-yl)ethanone]",~5.22
12,"Cn1cncc1C(O)(c1ccc(C(F)(F)F)nc1)c1ccc2nc(C#N)c(Cc3ccc(F)cc3)c(C#N)c2c1 (single isomer, unassigned) [Example 53b, 3-(4-Fluorobenzyl)-6-(hydroxy(1-methyl-1H-imidazol-5-yl)(6-(trifluoromethyl)pyridin-3-yl)methyl)quinoline-2,4-dicarbonitrile]",6.19
13,"COc1nc2ccc(C(O)(c3ccc(Cl)cc3)c3cncn3C)cc2c(C#N)c1Cc1ccc(C(F)(F)F)cc1 (single isomer, unassigned) [Example 55c, 6-((4-Chlorophenyl)(hydroxy)(1-methyl-1H-imidazol-5-yl)methyl)-2-methoxy-3-(4-(trifluoromethyl)benzyl)quinoline-4-carbonitrile]",7.25
14,"COc1nc2ccc(C(O)(c3ccc(C)nc3C)c3cnc(C)n3C)cc2c(Cl)c1Cc1ccc(C(F)(F)F)cc1 (single isomer, unassigned) [Example 57b, (4-Chloro-2-methoxy-3-(4-(trifluoromethyl)benzyl)quinolin-6-yl)(1,2-dimethyl-1H-imidazol-5-yl)(2,6-dimethylpyridin-3-yl)methanol]",6.49
15,"COc1nc2ccc(C(O)(c3ccccn3)c3cncn3C)cc2c(Cl)c1Cc1ccc(S(C)(=O)=O)cc1 (single isomer, unassigned) [Example 58c, (4-Chloro-2-methoxy-3-(4-(methylsulfonyl)benzyl)quinolin-6-yl)(1-methyl-1H-imidazol-5-yl)(pyridin-2-yl)methanol]",6.19

# Same assay, conditions: read-out: Human Th17 Assay, IC50; IL-17 production, CD4 T cells, 3 days
row,SMILES,pIC50
1,"COc1nc2ccc(C(O)(c3cncn3C)C3CCOCC3)cc2c(Cl)c1Cc1ccc(-n2cccn2)cc1 (single isomer, unassigned) [Example 1b, (3-(4-(1H-Pyrazol-1-yl)benzyl)-4-chloro-2-methoxyquinolin-6-yl)(1-methyl-1H-imidazol-5-yl)(tetrahydro-2H-pyran-4-yl)methanol]",6.85
2,"COc1nc2ccc(C(O)(c3cncn3C)C3CCOCC3)cc2c(Cl)c1Cc1ccc(-n2cccn2)cc1 (single isomer, unassigned) [Example 1c, (3-(4-(1H-Pyrazol-1-yl)benzyl)-4-chloro-2-methoxyquinolin-6-yl)(1-methyl-1H-imidazol-5-yl)(tetrahydro-2H-pyran-4-yl)methanol]",7.52
3,"COc1nc2ccc(C(O)(c3ccc(C#N)cc3)c3cncn3C)cc2c(Cl)c1Cc1ccc(-n2cncn2)cc1 (single isomer, unassigned) [Example 14b, 4-((3-(4-(1H-1,2,4-Triazol-1-yl)benzyl)-4-chloro-2-methoxyquinolin-6-yl)(hydroxy)(1-methyl-1H-imidazol-5-yl)methyl)benzonitrile]",6.25
4,"COc1nc2ccc(C(O)(c3ccc(C#N)cc3)c3cncn3C)cc2c(Cl)c1Cc1ccc(-n2cncn2)cc1 (single isomer, unassigned) [Example 14c, 4-((3-(4-(1H-1,2,4-Triazol-1-yl)benzyl)-4-chloro-2-methoxyquinolin-6-yl)(hydroxy)(1-methyl-1H-imidazol-5-yl)methyl)benzonitrile]",7.52
5,"COc1nc2ccc(C(O)(c3ccc(C#N)cc3)c3cncn3C)cc2c(C#N)c1Cc1ccc(-n2cncn2)cc1 (single isomer, unassigned) [Example 15b, 3-(4-(1H-1,2,4-Triazol-1-yl)benzyl)-6-((4-cyanophenyl)(hydroxy)(1-methyl-1H-imidazol-5-yl)methyl)-2-methoxyquinoline-4-carbonitrile]",6.02
6,"COc1nc2ccc(C(O)(c3ccc(C#N)cc3)c3cncn3C)cc2c(C#N)c1Cc1ccc(-n2cncn2)cc1 (single isomer, unassigned) [Example 15c, 3-(4-(1H-1,2,4-Triazol-1-yl)benzyl)-6-((4-cyanophenyl)(hydroxy)(1-methyl-1H-imidazol-5-yl)methyl)-2-methoxyquinoline-4-carbonitrile]",7.70
7,"CCc1nc2ccc(C(O)(c3cnnn3C)c3cnc(C)n3C)cc2c(Cl)c1Cc1ccc(C(F)(F)F)cc1 (single isomer, unassigned) [Example 25c, (4-Chloro-2-ethyl-3-(4-(trifluoromethyl)benzyl)quinolin-6-yl)(1,2-dimethyl-1H-imidazol-5-yl)(1-methyl-1H-1,2,3-triazol-5-yl)methanol]",8.74
8,"COc1nc2ccc(C(O)(c3cnnn3C)c3cnc(C)n3C)cc2c(C#N)c1Cc1ccc(C(F)(F)F)nc1 (single isomer, unassigned) [Example 44b, 6-((1,2-Dimethyl-1H-imidazol-5-yl)(hydroxy)(1-methyl-1H-1,2,3-triazol-5-yl)methyl)-2-methoxy-3-((6-(trifluoromethyl)pyridin-3-yl)methyl)quinoline-4-carbonitrile]",7.77
9,"COc1nc2ccc(C(O)(c3cnnn3C)c3cnc(C)n3C)cc2c(C#N)c1Cc1ccc(C(F)(F)F)nc1 (single isomer, unassigned) [Example 44c, 6-((1,2-Dimethyl-1H-imidazol-5-yl)(hydroxy)(1-methyl-1H-1,2,3-triazol-5-yl)methyl)-2-methoxy-3-((6-(trifluoromethyl)pyridin-3-yl)methyl)quinoline-4-carbonitrile]",8.60
10,"Cn1cncc1C(O)(c1ccc(C(F)(F)F)nc1)c1ccc2nc(C#N)c(Cc3ccc(F)cc3)c(C#N)c2c1 (single isomer, unassigned) [Example 53c, 3-(4-Fluorobenzyl)-6-(hydroxy(1-methyl-1H-imidazol-5-yl)(6-(trifluoromethyl)pyridin-3-yl)methyl)quinoline-2,4-dicarbonitrile]",6.38
11,"COc1nc2ccc(C(O)(c3ccccn3)c3cncn3C)cc2c(Cl)c1Cc1cc2ccccc2s1 (single isomer, unassigned) [Example 59b, (3-(Benzo[b]thiophen-2-ylmethyl)-4-chloro-2-methoxyquinolin-6-yl)(1-methyl-1H-imidazol-5-yl)(pyridin-2-yl)methanol]",7.15
